Measured values taken from the RNAGym collection of RNA variant scans (doi:10.1093/nar/gkz1192).
Read counts are not given, so values of variants with three or more changes are uncertain.

B1: CPEB3 Ribozyme (parent)
chain: UAACAGGGGGCCACAGCAGAAGCGUUCACGUCGCAGCCCCUGUCAGAUUCUGGUGAAUCUGCGAAUUCUGCUGUAUAUCUC

Variants of: B1
Assay: self-cleavage, relative activity (ratio to wild type); higher = more cleavage; in vitro, sequencing
Method in brief: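 Barcoded CPEB3 ribozyme mutants, produced by rounds of error-prone PCR, self-cleaved while being transcribed with T7 RNA polymerase for 5 hours at 37°C and during a subsequent 15 min DNase I step before EDTA was added. Sequencing of template-switched cDNA on Illumina gave cleaved and total reads, and DNA sequencing assigned barcodes to variants. Each variant's relative activity is its cleaved/total read fraction divided by the unmutated ribozyme's fraction, averaged across three batches. A variant needed a minimum of 5 reads.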
Work on UAACAGGGGGCCGCUGCAGAAACGUUCACGACGCAGCUCCGGUCAGAUUCUGGUGAAUCUGCGAAUUCUGCUGUGUAUCUC yielded a self-cleavage of 0.04.
In the case of UAACAGGGGGCCGCUGCAGAAGCGCUCACGUCGCAGCCCCUGUCAGAUUCUGGUGAAUCUGCGAAUUCUGCUGUAUAUCUC, the self-cleavage is reported as 0.06.
Work on UAACAGGGGGCCGCUGCAGAAGCGCUCACGUCGCAGCCUCUGUCAGAUUAUGGUGAAUCUGCGAAUUCUGCUGUAUAUCUC yielded a self-cleavage of 0.29.
For UAACAGGGGGCCGCUGCAGAAGCGCGCACGUCGCAGCCCCUGUCAGAUUCUGGUGAAUCUGCGAAUUCUGCCGUAUAUCUC, the self-cleavage was 0.11.
Variant UAACAGGGGGCCGCUGCAGAAGCGUCCACGUCGCAGCCCCUGUCAGAUUCUGGUGAAUCUGCGAAUUCUACUGUACAUCUC has a self-cleavage of 0.2.
In the case of UAACAGGGGGCCGCUGCAGAAGCGUUCACGUCGCAGCCCCAGUCAGAUUCUGGUGAAUCUGCGAAUUCUGCUGUAUAUCAC, the self-cleavage is reported as 0.13.
With UAACAGGGGGCCGCUGCAGAAGCGUUCACGUCGCAGCCCCUGACAGAUUCUGGUGAACCAGCGAAUUCUGCUAUAUAUCAC the self-cleavage was 0.16.
With UAACAGGGGGCCGCUGCAGAAGCGUUCACGUCGCAGCCCCUGCCAGAUUCUGGUGAAUCUGCGAAUUCUGCAGUAUAUCUC the self-cleavage was 0.28.
Work on UAACAGGGGGCCGCUGCAGAAGCGUUCACGUCGCAGCCCCUGUCAGAUCCUGGUGAAUCGGCGAAUUCUGCUGUAUAUCUC yielded a self-cleavage of 0.
With UAACAGGGGGCCGCUGCAGAAGCGUUCACGUCGCAGCCCCUGUCAGAUUCGGGUGCAUCUGCGAAUUCUGCUGUAUAUCUC the self-cleavage was 0.23.
In the case of UAACAGGGGGCCGCUGCAGAAGCGUUCACGUCGCAGCCCCUGUCAGAUUCUGGCGAAUCUGCGAAUUCUGCUGUAUAUCUC, the self-cleavage is reported as 0.49.
Variant UAACAGGGGGCCGCUGCAGAAGCGUUCACGUCGCAGCCCCUGUCAGAUUCUGGCGAAUCUGCGAAUUCCGCUGUAUAUUUC has a self-cleavage of 0.07.
In the case of UAACAGGGGGCCGCUGCAGAAGCGUUCACGUCGCAGCCCCUGUCAGAUUCUGGUGAAUCUGCGAAUCCCGCAGUAUAUCUC, the self-cleavage is reported as 0.12.
For UAACAGGGGGCCGCUGCAGAAGCGUUCACGUCGCAGCCCCUGUCAGAUUCUGGUGAAUCUGCGAAUUCCGCUGUAUUUCUC, the self-cleavage was 0.1.
In the case of UAACAGGGGGCCGCUGCAGAAGCGUUCACGUCGCAGCCCCUGUCAGAUUCUGGUGAAUCUGCGAAUUCUGCUGUAUAUCCC, the self-cleavage is reported as 0.87.
UAACAGGGGGCCGCAGCCGGAGCGUUCACGCCGCAGCCCCUGUCAGAUUCUGGUGAAUCUGCGAAUUCUGCUGUAUAUCUC showed a self-cleavage of 0.46.
For UAACAGGGGGCCGCAGCCGAAGCGUUCACGUCGCAGCCCCUGUCAGAUUCUGGUGUAUCUGCGAAUUCUGCUAUAUAUCUC, the self-cleavage was 0.13.
UAACAGGGGGCCGCAGCCGAAGCGUUCAUGUCGCAGCCCCUGUCAGAUUCUGGUGGAUCUGCGAUUUCUGCUGUAUAUCUC showed a self-cleavage of 0.33.
Work on UAACAGGGGGCCGCAGCCGAAGCGUCCACGUCGCAGCCCCCGUCAGAUUCUGGUGAAUCUGCGAAUACUGCUGCAUAUCCC yielded a self-cleavage of 0.13.
In the case of UAACAGGGGGCCGCAGCCGAAGCGUUCACGCCGCAGCCCCUGUCAGAUUCUGGUGAAUCCGCGAAUUCUGCUGUAUAUCUC, the self-cleavage is reported as 0.12.
UAACAGGGGGCCGCAGCCGAAGCGUUCACGUCGCAGCCCCUGUCAGAUCCUGGUGAAUCUGCGAAUUCUGCCGUAUAUCUC gave a self-cleavage of 0.21.
In the case of UAACAGGGGGCCGCAGCGGGGGCGUUCACGUCGCAGCCCCUGUCAGAUUCUGGUGAAUCUGCGAAUUCUGCUGUAUACUUC, the self-cleavage is reported as 0.1.
UAACAGGGGGCCGCAGCGGGAGCGUUCACGUCGCAGCCCCUGUCAGAUUCUGGUGAAUCUGCGAAUCCUGCUGUAUAUCUC showed a self-cleavage of 0.22.
Work on UAACAGGGGGCCGCAGCGGUAGCGUUCACGCCGCAGCCCCUGUCAGAUUCUGGUGAAUCUGCGAAUUCUGCUGUAUAUCUC yielded a self-cleavage of 0.12.
For UAACAGGGGGCCGCAGCGGAGGCGUUCUCGUCGCAGCCCCUGCCAGAUUCUGGUGAAUCUGCGAAUUCUGCUGUAUAUCUC, the self-cleavage was 0.34.
UAACAGGGGGCCGCAGCGGAGGCGUUGACGUCGCAGCCCCUGUCAGUUUCUGGUGAAUCUGCGAAUUCUGCUGUAUACCUC showed a self-cleavage of 0.01.
UAACAGGGGGCCGCAGCGGAUGCGUUCACGUCCCAGCCCCUGUCAGAUACUGGUGGGUCUGCGAAUUCUGCUGUAUAUCUC gave a self-cleavage of 0.14.
UAACAGGGGGCCGCAGCGGAAGCGUUCCCGUCACAGCCCCUGUCAGAUUCUGGUGAAUCUGCGAAUCCUGCUGUAUAUCUC showed a self-cleavage of 0.03.
For UAACAGGGGGCCGCAGCGGAAGCGUUCGCGUCGCUGCCCCUGUCAGGGUCUGGUGAAUCUGCGAAUUCUGCUGUAUAUCUC, the self-cleavage was 0.23.
In the case of UAACAGGGGGCCGCAGCGGAAGCGUUCACGUCGCGGCCCCUGUCGGUUUCUGGUGAAUCUGCGAAUUCUGCAGUAUAUCUC, the self-cleavage is reported as 0.
In the case of UAACAGGGGGCCGCAGCGGAAGCGUUCACGUCGCUGCCCCUGUCAGAUUCUGGUGAACCUGCUAAUUCUGCUGUAUAUCUC, the self-cleavage is reported as 0.02.
UAACAGGGGGCCGCAGCGGAAGCGUUCACGUCGCAGCCCCUGUCGGAUUCUGGUGAAUCUGCGAAUUCUGCUGUAUAUCUC gave a self-cleavage of 0.51.
UAACAGGGGGCCGCAGCGGAAGCGUUCACGUCGCAGCCCCUGUCGGUUUCUGGUGAAUCUGCGAAUUCUGCUGUAUAUCUC showed a self-cleavage of 0.29.
Work on UAACAGGGGGCCGCAGCGGAAGCGUUCACGUCGCAGCCCCUGUCAGGUUCUGGUGAACCUGCGAAUUCUGCUGUAUUUCUC yielded a self-cleavage of 0.5.
